The whole screen tested about 310,000 compounds, of which about 2,200 (0.71%) showed an effect of 50% or more. The effect is printed as a negative number. This is one part of the list.
Biological target: human ether-à-go-go-related gene (hERG) potassium channel (human, UniProt Q12809)
Experiment: primary screen, population patch clamp on CHO cells stably expressing hERG

Chain of human ether-à-go-go-related gene (hERG) potassium channel (Q12809 whole entry, looked up): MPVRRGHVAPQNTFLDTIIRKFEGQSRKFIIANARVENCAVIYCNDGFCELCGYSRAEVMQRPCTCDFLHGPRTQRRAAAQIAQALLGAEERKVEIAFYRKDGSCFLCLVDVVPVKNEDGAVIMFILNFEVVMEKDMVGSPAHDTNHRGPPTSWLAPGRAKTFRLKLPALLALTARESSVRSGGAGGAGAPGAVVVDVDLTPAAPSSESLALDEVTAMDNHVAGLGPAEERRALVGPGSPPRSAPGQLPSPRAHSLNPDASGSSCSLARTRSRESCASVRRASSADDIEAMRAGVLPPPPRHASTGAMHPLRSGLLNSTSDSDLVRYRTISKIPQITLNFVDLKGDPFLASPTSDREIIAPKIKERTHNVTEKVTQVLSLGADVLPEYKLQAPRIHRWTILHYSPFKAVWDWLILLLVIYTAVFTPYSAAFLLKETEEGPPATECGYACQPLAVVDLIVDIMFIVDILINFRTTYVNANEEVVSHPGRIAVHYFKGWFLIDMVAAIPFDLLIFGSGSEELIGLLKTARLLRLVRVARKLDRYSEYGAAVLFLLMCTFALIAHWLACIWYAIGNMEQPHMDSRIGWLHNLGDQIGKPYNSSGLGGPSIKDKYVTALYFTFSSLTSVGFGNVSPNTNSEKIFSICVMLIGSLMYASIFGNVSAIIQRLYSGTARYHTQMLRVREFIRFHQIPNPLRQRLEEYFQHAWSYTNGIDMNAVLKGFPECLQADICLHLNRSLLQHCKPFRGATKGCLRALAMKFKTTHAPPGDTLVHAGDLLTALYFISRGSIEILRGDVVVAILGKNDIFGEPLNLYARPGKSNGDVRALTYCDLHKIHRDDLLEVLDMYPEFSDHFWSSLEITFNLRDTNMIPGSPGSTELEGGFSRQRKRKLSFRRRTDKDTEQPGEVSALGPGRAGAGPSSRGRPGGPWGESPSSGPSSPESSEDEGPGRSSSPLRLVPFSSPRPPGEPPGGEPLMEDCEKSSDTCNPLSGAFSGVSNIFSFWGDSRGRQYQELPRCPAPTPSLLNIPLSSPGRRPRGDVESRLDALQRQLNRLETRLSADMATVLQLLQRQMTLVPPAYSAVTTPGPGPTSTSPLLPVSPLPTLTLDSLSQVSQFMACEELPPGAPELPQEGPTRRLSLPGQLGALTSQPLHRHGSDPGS

| Structure (SMILES) | hERG current change (%, negative = inhibition) at 1uM [%] |
| --- | --- |
| Cc1ccc(NC(=O)c2ccccc2-c2ccccc2C(=O)O)cc1 | 13.4 |
| CCCn1c(=O)n(C)c(=O)c2c(SCc3cc(C(C)=O)ccc3OCC)nc(C3CC3)nc21 | 6.55 |
| Cc1ccc(/C=N/NC(=O)Nc2ccccc2)o1 | 13.6 |
| COc1ccc(N(C=O)C(C(=O)Nc2c(C)cccc2C)c2ccccc2)cc1 (stereo not shown) | 1.19 |
| O=C(Nc1nonc1-c1ccc(F)cc1)c1ccco1 | 0.404 |
| ClC1=C(Cl)C(Cl)=C(Cl)C1=C/C=C/c1ccccc1 | 9.93 |
| COC(=O)C(CCSC)NC(=O)Cn1ncc2c(=O)oc3ccc(C)cc3c21 (stereo not shown) | 6.22 |
| CCn1cc(S(=O)(=O)N2CCc3ccccc3C2)cn1 | 16 |
| O=C(CCNc1ccc(F)cc1)c1cc2ccccc2o1 | 9.72 |
| Cc1ccsc1/C=N\NC(=O)CCc1c(C)n[nH]c1C | 2.2 |
| Cc1cc(C(=O)Nc2ccccc2C(=O)O)ccc1NC(=O)COc1cccc(C)c1C | 7.97 |
| CCOc1cc2c(cc1/C=C/c1noc(C)c1[N+](=O)[O-])OC(C)C2 (stereo not shown) | 15 |
| Cc1ccc(CNC(=O)C2CCN(S(=O)(=O)c3c(C)noc3/C=C/N(C)C)CC2)cc1 | 12.8 |
| O=C(O)c1ccccc1OCc1nc2ccccc2s1 | 9.79 |
| C=CCN1C(=O)C(C)S/C1=N\S(=O)(=O)c1ccc(Cl)cc1 (stereo not shown) | 9.59 |
| COc1ccc(C2CC(c3ccccc3)=NN2C(=O)COC(=O)C2CC2)cc1 (stereo not shown) | 3 |
| O=C(Nc1nc(-c2ccccc2)cs1)C1CCCCN1S(=O)(=O)c1ccccc1 (stereo not shown) | 7.14 |
| COc1cc(C)c(/C=C/C(C)=C/C=C/C(C)=C/C(=O)O)c(C)c1C | 10.8 |
| COC(=O)c1ccc(CNC(=O)COC(=O)COc2ccc(OC)cc2)cc1 | 19.6 |
| Cc1nnc(SCCn2c(N3CCC(Cc4ccccc4)CC3)nc3c2c(=O)[nH]c(=O)n3C)s1 | 1.88 |
| COc1ccc(C(=O)O)cc1S(=O)(=O)N(C)C | 17 |
| CC(C(=O)N1CCc2ccccc21)N1CCN(Cc2ccc(Cl)cc2)CC1 (stereo not shown) | -30.9 |

| Structure (SMILES) | hERG current change (%, negative = inhibition) at 1uM [%] |
| --- | --- |
| O=C(COC(=O)c1c(Cl)cccc1Cl)Nc1cc(Cl)ccc1Oc1ccccc1 | 1.1 |
| Cc1cc(C)nc(SC(C)CNS(=O)(=O)c2ccccc2)n1 (stereo not shown) | 10.2 |
| CCCCn1c(N)c(N(Cc2ccccc2OC)C(=O)COc2ccccc2OC)c(=O)[nH]c1=O | 4.15 |
| Cc1ccc(S(=O)(=O)N2CCN(C(=O)c3ccccc3OCc3c(C)noc3C)CC2)cc1 | 2.96 |
| Cc1ccc(NC(=O)COC(=O)c2ccc3c(c2)OCCO3)cc1S(=O)(=O)N1CCOCC1 | 14.5 |
| CN(Cc1ccco1)c1ncnc2ccc(-c3ccoc3)cc12 | 7.88 |
| COc1cccc(C(=O)O/N=C2\CCS(=O)(=O)c3sccc32)c1 | 11.5 |
| Nc1ccc2nc(-c3ccccn3)[nH]c2c1 | 10.9 |
| O=C1N(Cc2cccnc2)C[C@@H]2C[C@@H](c3cccc(C(F)(F)F)c3)N3CCC[C@@]123 | 4.65 |
| COc1cc(NC(=S)NC2CC2)c(OC)cc1Cl | 9.02 |
| CC(C)c1csc(CN2CCN(CCc3ccccc3)C(CCO)C2)n1 (stereo not shown) | -23.1 |
| Cc1ccc2[nH]c3c(=O)n(CCc4cnc[nH]4)cnc3c2c1 | 5.32 |
| C#CCOCCOCCOCCNc1nc(N2CCN(C(=O)[C@H](CCC(=O)O)n3cc(C(N)CC(C)C)nn3)CC2)nc(N2CCN(C(=O)[C@H](Cc3ccc(O)cc3)n3cc(C(N)[C@H](C)CC)nn3)CC2)n1.Cl (stereo partly shown) | -14.2 |
| CCOC(=O)c1c(C)[nH]c(C)c1C(=O)COC(=O)c1ccc([N+](=O)[O-])s1 | -2.06 |
| O=C1CC(c2ccccc2)Cc2nc(NCc3ccco3)ncc21 (stereo not shown) | -12.5 |
| CCC(Oc1ccccc1)C(=O)N(C)CC(=O)N(CC(C)C)c1c(N)n(CC(C)C)c(=O)[nH]c1=O (stereo not shown) | 7.85 |
| CCC(=O)N1CCN=C1SCc1cccc(C(F)(F)F)c1 | 5.92 |
| O=C(NCC1CCCO1)c1cccc(Br)c1 (stereo not shown) | 5.03 |
| O=C(O)c1cc(Br)ccc1NN=C1CCCCC1 | 2.9 |
| O=C(NCc1cccnc1)NC(C(F)(F)F)C(F)(F)F | 2.02 |
| Cl.O=C(OCCN1CCOCC1)c1ccc(OCCN2CCOCC2)cc1 | 9.88 |
| CCOc1ccc(NC(=O)CN(C)C(=O)CN2C(=O)C3CCCCC3C2=O)cc1OCC (stereo not shown) | 15.3 |

| Structure (SMILES) | hERG current change (%, negative = inhibition) at 1uM [%] |
| --- | --- |
| COc1ccc(-n2nc(C(=O)NCC(=O)N(C)Cc3ccccc3)c3ccccc3c2=O)cc1OC | 13.2 |
| CC(=O)Nc1ccc(NC(=O)[C@@H](NC(=O)N2C[C@H]3C[C@@H](C2)c2cccc(=O)n2C3)C(C)C)cc1 | 4.56 |
| COc1ccccc1NC(=O)c1ccc(NC(=O)c2ccc(=O)[nH]c2)cc1 | 14.3 |
| O=C(CN(C(=O)c1ccccc1Cl)N1C(=O)CCCC1=O)c1ccc(Cl)cc1 | 13.2 |
| N=c1oc2ccccc2cc1C(=O)NC1CCCCCC1 | 10.9 |
| CN(C)CCCCCN(C)Cc1cc2ccccc2o1.Cl | 16.2 |
| Cc1ccc(/C=C/c2nc3ccccc3s2)s1 | 4.52 |
| CCC(C)(NC(=O)c1ccccn1)C(=O)NC1CCCCC1 (stereo not shown) | 14.3 |
| Cc1ccccc1N(C(=O)c1ccccn1)C(C(=O)NCc1ccccc1)c1cccnc1 (stereo not shown) | 11.3 |
| O=C(CCSc1nc2ccccc2o1)Nc1ccccc1 | 14.8 |
| CN1C(=O)c2cccc3c(S(=O)(=O)Nc4ccccn4)ccc1c23 | 5.11 |
| CCCOc1c(Br)cc(C2C3=C(CCCC3=O)N(C)C3=C2C(=O)CCC3)cc1OC | -1.18 |
| CCOc1ccc(OCc2cccc(C(=O)N3CCCC3)c2)cc1 | 10.5 |
| COC(c1ccc(Cl)cc1)(c1ccc(Cl)cc1)C(Oc1nccc(C)n1)C(=O)O (stereo not shown) | 15.4 |
| COc1ccc(OC)c(NC(=O)c2ccc(CN(c3cc(Cl)ccc3C)S(=O)(=O)c3ccccc3)cc2)c1 | 5.74 |
| CCOC(=O)N1CCN(C(=O)C2CCCN(S(=O)(=O)c3cc(C)ccc3OC)C2)CC1 (stereo not shown) | 3.06 |
| COc1ccc(C(O)P(=O)(OCc2ccccc2)c2ccc(N(C)C)cc2)cc1 (stereo not shown) | 13.4 |
| C/C(=N\NC(=S)NC1CCCCC1)c1cccs1 | 8.24 |
| Clc1ccc(-c2nc3ncccn3c2Nc2ccc3c(c2)OCCO3)cc1 | 17 |
| Cc1cc[n+](CC2OCc3ccccc3CO2)cc1.[Br-] | 7.93 |
| O=C1CCc2cc(S(=O)(=O)N3CCN(c4ccccc4)CC3)cc3c2N1CCC3 | 2.05 |
| Cc1cc(C)cc(NC(=O)CSc2nc3c(c(=O)[nH]2)CN(Cc2ccc(F)cc2)CC3)c1 | 1.69 |

| Structure (SMILES) | hERG current change (%, negative = inhibition) at 1uM [%] |
| --- | --- |
| COc1ccc(CNC(=O)C(NC(C)=O)C(=O)Nc2ccc(C(C)C)cc2)cc1 (stereo not shown) | 19.9 |
| COC(=O)c1c(C(=O)OC)c(-c2ccccc2)n2c1CS(=O)C2 (stereo not shown) | 9.86 |
| COc1cc2nc(N(C)C)nc(N)c2cc1OC.Cl | -6.59 |
| O=C(c1cccc(S(=O)(=O)Nc2ccc(F)cc2)c1)N1CCC1 | 14.6 |
| CCCCN(CC)C(=O)Cn1ncc2c3ccccc3n(CCC)c2c1=O | -2.29 |
| CNC(=S)N/N=C/c1c2ccccc2c(Cl)c2ccccc12 | 15.9 |
| O=C(NCc1ccccc1F)C(=O)NCC1OCCCN1S(=O)(=O)c1cccs1 (stereo not shown) | 15 |
| N/C(CSc1ccccn1)=N\OCc1c(Cl)cccc1Cl | 11 |
| O=S(=O)(NCc1nnc2ccccn12)c1ccc(Cl)cc1 | 15.5 |
| N#Cc1cnc(Oc2ccc(Cl)cc2)nc1N | 11.7 |
| O=C(Cc1cccs1)N/N=C/c1ccccn1 | 12.6 |
| CCNC(=O)C1CCCN1C(=O)C(CCCN=C(N)N)NC(=O)C(CC(C)C)NC(=O)C(Cc1cn(Cc2ccccc2)cn1)NC(=O)C(Cc1ccc(O)cc1)NC(=O)C(CO)NC(=O)C(Cc1c[nH]c2ccccc12)NC(=O)C(Cc1cnc[nH]1)NC(=O)C1CCC(=O)N1 (stereo not shown) | 12.7 |
| COc1ccc2c(c1)c(C(=O)N1CCN(C)CC1)c(C)n2-c1ccccc1 | -5.59 |
| O=C(NCCNC(=O)c1ccco1)c1cccc(F)c1 | 12.7 |
| c1csc(-c2nc(CN3CCSCC3)cs2)c1 | 13 |
| Cc1ccc2nc(-c3cccc(Br)c3)cc(C(=O)NCC3CCCO3)c2c1 (stereo not shown) | 9.13 |
| C/C(=N\N=C1\NC(=O)C(CC(=O)Nc2ccc(C)c(Cl)c2)S1)C(C)C (stereo not shown) | 14.4 |
| CCNC(=S)Nc1ccc(Oc2ccccc2)cc1 | 10.1 |
| COCCCN1C(=O)c2ccccc2C1C(=O)NC1CCCCCC1 (stereo not shown) | 2.08 |
